Sequences with one replicate were seen in a single cluster, so their values are uncertain.
System: ATP
Experiment: switch fluorescence ratio, 500 uM ATP over buffer (Cy3 cluster intensity, sum of 5 cycles each) (fold (ratio)); higher = stronger signal-on switching upon ATP binding; sequences stand for … in TCGTCGGCAGCGTCAGATGTGTATAAGAGACAGTTTTTTTTTTTTTTTTTTTTTTTTT…TC
Details: aptamer strand: ATP DNA aptamer (quencher-CACCTGGGGGAGTATTGCGGAGGAAGG + anchor), 100 nM annealed; ATP concentration: 500 uM; one replicate
Procedure, shortened: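 The quencher-labelled ATP aptamer, at 100 nM, was annealed to Cy3-labelled switching-strand clusters on a modified Illumina MiSeq flow-cell. The clusters were imaged in selection buffer, then after 15 min with 500 uM ATP at 22 °C, and this buffer/ATP cycle ran five times with NaOH stripping and re-annealing between runs. Per-cluster fluorescence ratios, summed target-cycle over summed buffer-cycle Cy3 intensity, were averaged per switch-domain sequence. Clusters outside 100-1000 RFU were excluded.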
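Also: ATP exposure 15 min at 22 °C before imaging.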

| Sequence | switch fluorescence ratio |
| --- | --- |
| GGGAGTCGTT | 1 |
| CTAAGGGTAG | 1.82 |
| CTCAAAGCGG | 1.06 |
| TATAGTAGCA | 1 |
| TCTGAAAGAC | 1.51 |
| CTGCCTGGGC | 1.01 |
| TAGTTTACGG | 1.01 |
| TCTTGGTGTA | 1.16 |
| TGTGTCGGAG | 0.974 |
| CCCGCATAAT | 4.86 |
| GATCTCGGCG | 0.954 |
| TGTGAGACGA | 1.04 |
| GGTAGTTATT | 0.995 |
| GTAACCGGGA | 0.997 |
| TTGAGCTCCA | 0.985 |
| TCTTTACGTT | 0.989 |
| TTGCAGTTAT | 0.973 |
| ACCATGTGTA | 1.01 |
| GGGAGGAGTC | 0.958 |
| GGGAAGCGCT | 0.997 |
| AATAAGTTCG | 0.986 |
| CGTCATTGAC | 1.01 |
| AAGCTTCGTG | 1.06 |
| CATTGTAGGC | 0.979 |
| GTGGCTAAAC | 1.03 |
| TTCTCCTCG | 1.04 |

| Sequence | switch fluorescence ratio |
| --- | --- |
| TTTGTCTGGG | 1.01 |
| CATAGGGGCT | 0.986 |
| AATAACCGGA | 1.03 |
| AAGGGATGTA | 0.989 |
| CCGGTATGC | 2.78 |
| AATGAGGCTC | 0.994 |
| TATGTCTAAC | 1.05 |
| TTGCGCGATG | 1.08 |
| GAGTTCCGAG | 0.998 |
| AATGTGTGTA | 1.03 |
| CGATACAGGT | 1.14 |
| TCGAACTTCT | 1.02 |
| TCCTTTTTTC | 1.04 |
| CAACCGGCT | 1.06 |
| GCAATGATCG | 1.3 |
| ATTAGTTATC | 1.02 |
| GCTTCGCGTG | 1.05 |
| CTGATACCCC | 1.15 |
| TGTTAGCATG | 0.942 |
| CAAGAATAG | 0.989 |
| TCACACGTAC | 1.86 |
| GCTCTGAAAA | 0.982 |
| ATTTAGGAT | 1.01 |
| AGCGCTCGTC | 1.02 |
| GACGACTCTA | 1.51 |
| CCAATCAGAC | 1.1 |

| Sequence | switch fluorescence ratio |
| --- | --- |
| GCGGTACCAG | 1 |
| GCTATAGTCC | 3.19 |
| TTAATTCCAT | 0.992 |
| ATGTTGCATC | 1.03 |
| CAGTGTATG | 1.01 |
| ATCTATACCG | 1.02 |
| AATACTCCCT | 1.22 |
| TCAGATAATC | 1.01 |
| GCTTGAAAGA | 1.02 |
| TGTCAAGCTA | 1.48 |
| TTAAATACGC | 1.01 |
| ACGGTCAATG | 1.04 |
| ATGGGTTGC | 1.01 |
| GAGCGGCTCA | 1.02 |
| TTAACAGTTA | 0.968 |
| TCGTCGTTGA | 1 |
| ACCTATTAGG | 1 |
| AACAAAGGTT | 1.07 |
| TACTCAGTAC | 1.41 |
| AGATTCCAGT | 0.973 |
| ATCAGGTTTG | 1.01 |
| GGAGGGCGCT | 1.01 |
| CCTAGTTTCT | 0.973 |
| TCGTTAAAGC | 1.01 |
| TGGCCGGGAC | 1.03 |

— the supplement of paper PMC10126150
